Reference: the BET-seq Pho4 binding data (Le et al. 2018)
The list shows a part of the results. The energies were worked out here from pooled read counts, against the library average; single values are noisy.

biological target: T1, Pho4 (S. cerevisiae) (UniProt P07270); experiment: relative binding free energy (BET-seq); higher = weaker binding; conditions: reference: library average
T1 sequence: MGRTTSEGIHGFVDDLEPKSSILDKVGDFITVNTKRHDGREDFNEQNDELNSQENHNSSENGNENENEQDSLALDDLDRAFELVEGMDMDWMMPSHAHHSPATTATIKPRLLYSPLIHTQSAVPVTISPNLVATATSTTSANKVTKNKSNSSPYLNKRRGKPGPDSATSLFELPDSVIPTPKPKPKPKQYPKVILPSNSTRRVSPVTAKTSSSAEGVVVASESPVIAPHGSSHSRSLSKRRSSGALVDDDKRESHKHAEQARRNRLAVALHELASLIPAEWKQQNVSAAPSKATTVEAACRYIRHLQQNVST

| Sequence | relative binding free energy [kcal/mol] |
| --- | --- |
| AGTATCACGTGAGGTG | 0.29 |
| TATTACACGTGTTATA | 0.01 |
| AGAGTCACGTGCATGG | 0.03 |
| CTAGGCACGTGGGGAC | -0.19 |
| TGTAGCACGTGCGTGT | -0.24 |
| TATTTCACGTGTTGGT | 0.3 |
| GACTGCACGTGTTGTG | 0.11 |
| GGTGTCACGTGAAAAG | 0.23 |
| CTTTTCACGTGAAGGA | 0.44 |
| TATATCACGTGATTCG | 0.27 |
| TGGATCACGTGTCCGT | 0.19 |
| ACGTTCACGTGGGGTG | 0.07 |
| AAATTCACGTGTTATT | 0.24 |
| TTTTACACGTGTGAAG | 0.27 |
| GTTTTCACGTGAGGAA | 0.31 |
| AGTGTCACGTGGGGTT | -0.12 |
| AAAATCACGTGTATTT | 0.05 |
| TGAGCCACGTGGAGTG | -0.03 |
| TAAGGCACGTGTGTCG | 0.06 |
| GGTTCCACGTGGTTTG | -0.04 |
| GGTGGCACGTGTCTGT | -0.05 |
| CGGTTCACGTGTCGTG | 0.21 |
| TTTGTCACGTGCTATT | 0.06 |
| GTCCGCACGTGAGTGG | 0.08 |
| GTTTTCACGTGTTTTT | 0.4 |

| Sequence | relative binding free energy [kcal/mol] |
| --- | --- |
| GGCTTCACGTGAGATG | 0.56 |
| ATATACACGTGGCGTA | -0.02 |
| GTAAACACGTGGGATG | -0.23 |
| GGTATCACGTGTTAAG | 0.21 |
| GTTAGCACGTGGTGGC | -0.09 |
| AGCTGCACGTGTGGAT | 0.08 |
| GGTGGCACGTGATGAT | 0 |
| ACGGTCACGTGAGTTG | 0.37 |
| GTCGGCACGTGGTAAT | -0.06 |
| CTGGACACGTGAGGTG | 0.26 |
| TATTACACGTGATGAT | 0.22 |
| TTATACACGTGCTTTT | -0.02 |
| TGTTTCACGTGGGTAC | 0.06 |
| TAGCTCACGTGGGTGT | -0.06 |
| TCTTACACGTGGTGGA | 0.19 |
| TTTGTCACGTGGGTCG | -0.01 |
| GGTTACACGTGGAGTG | 0.28 |
| CATCACACGTGGTTTG | 0.2 |
| GGGATCACGTGATAGA | 0.47 |
| TTGTGCACGTGCGAAT | -0.03 |
| TGTGGCACGTGACTAA | -0.02 |
| CTTTGCACGTGGCGGT | -0.19 |
| TGGGACACGTGGACGT | -0.04 |
| GAGAACACGTGAAGGT | 0.37 |
| TAGTTCACGTGAGGAT | 0.37 |

| Sequence | relative binding free energy [kcal/mol] |
| --- | --- |
| TAGCGCACGTGTTATG | 0.01 |
| TCTGTCACGTGTGTTT | 0.26 |
| TAGAACACGTGAAGTT | 0.28 |
| CGATCCACGTGTTGGG | 0.16 |
| ACTGTCACGTGGTTGA | 0.09 |
| CTTAACACGTGGTGTA | -0.24 |
| TGTTACACGTGTGTCT | 0.19 |
| TGTGTCACGTGCGGGG | 0.02 |
| ATGTTCACGTGTTGCC | 0.33 |
| AGTATCACGTGCTGAT | 0.2 |
| TGTCACACGTGAGCTT | 0.42 |
| GTGGACACGTGAGGTC | 0.42 |
| TGGATCACGTGTATTG | 0.07 |
| GTGATCACGTGTCGGG | 0.2 |
| TTTGTCACGTGTGGAG | 0.08 |
| GAGTTCACGTGGCTTG | 0.2 |
| GGGTTCACGTGAAAGT | 0.55 |
| ATGTACACGTGAGAGT | 0.46 |
| GCGTACACGTGGAGGG | 0.09 |
| CGTCGCACGTGTGTTT | -0.02 |
| TAAAACACGTGGGGGA | -0.13 |
| TGTTACACGTGCGGCG | 0 |
| TTGGTCACGTGGGACT | 0.04 |
| TTTGGCACGTGTGCGC | -0.18 |
| ATTTCCACGTGGTGAG | -0.04 |

| Sequence | relative binding free energy [kcal/mol] |
| --- | --- |
| AGTTGCACGTGTGCGC | -0.04 |
| GTAGCCACGTGGTGGG | -0.12 |
| ACTATCACGTGAAGTT | 0.49 |
| ATATGCACGTGGTCGA | -0.08 |
| CTGGACACGTGTGAGG | 0.09 |
| TTTGTCACGTGTAACG | 0.36 |
| TAGGCCACGTGGTATA | -0.11 |
| TTGTGCACGTGACATG | 0.01 |
| CGCGACACGTGGTAGG | -0.05 |
| AGGAACACGTGGGGTG | -0.19 |
| AGTTACACGTGTTGAA | 0.24 |
| TAGTGCACGTGTTACG | 0 |
| AGCGGCACGTGGTTAT | -0.14 |
| ATAGTCACGTGAATAG | 0.48 |
| AAGGGCACGTGAACGG | 0.05 |
| AGAGTCACGTGTTAAT | 0.07 |
| CTTTGCACGTGGGGAT | -0.21 |
| AAGCGCACGTGGGTTG | -0.16 |
| AGGAGCACGTGGTGAA | -0.19 |
| ATTGTCACGTGTGATA | 0.13 |
| ATGTTCACGTGATTGT | 0.35 |
| ATTTGCACGTGATATT | 0.11 |
| TTGACCACGTGAGGTT | 0.15 |
| CCGGACACGTGGGGGT | -0.2 |
| TCTGTCACGTGGGATC | 0.06 |

| Sequence | relative binding free energy [kcal/mol] |
| --- | --- |
| AGTTTCACGTGTTAAG | 0.3 |
| TAAAGCACGTGGGTGA | -0.29 |
| AGCGACACGTGGGATT | 0.04 |
| CTTGTCACGTGTGAGT | 0.13 |
| GGCAGCACGTGTGGTT | 0.01 |
| TCTTTCACGTGATAGA | 0.28 |
| GGCGGCACGTGGAGGC | -0.18 |
| CGGCGCACGTGCGTGG | -0.16 |
| TGTAGCACGTGTGTAG | 0.03 |
| GCGCGCACGTGGGGTA | -0.29 |
| TGCTTCACGTGGTGCA | 0.12 |
| CTGTTCACGTGTTGAT | 0.28 |
| AAGTGCACGTGTGAGC | 0.1 |
| GCTGTCACGTGACGGG | 0.29 |
| GATGGCACGTGTCAGT | -0.06 |
| TGAACCACGTGTTGGG | -0.06 |
| TGTTTCACGTGTGCGT | 0.26 |
| TTTTACACGTGTTCAA | 0.03 |
| AGTGGCACGTGCGGAG | -0.13 |
| TGGACCACGTGTGTAA | 0.07 |
| GGATACACGTGGAGGG | 0.1 |
| ATGGTCACGTGTCTTA | 0.12 |
| TGTTTCACGTGAATTA | 0.26 |
| TGTAACACGTGGGCAT | -0.17 |
| TAGTTCACGTGTAAAT | 0.31 |

| Sequence | relative binding free energy [kcal/mol] |
| --- | --- |
| CAGAGCACGTGGTTGG | -0.2 |
| CGGTACACGTGAGGGC | 0.27 |
| TAGGGCACGTGATTAA | -0.08 |
| GGGGCCACGTGTAATT | 0.14 |
| TGGTTCACGTGCGCGG | 0.12 |
| AAGTTCACGTGCGGCG | 0.42 |
| AGTTCCACGTGTGCTG | 0.06 |
| TAGGTCACGTGAGGTA | 0.21 |
| ATTAGCACGTGGGAAG | -0.03 |
| GAGTACACGTGGACTG | 0.28 |
| TGTTGCACGTGGACAA | 0.02 |
| CGAGTCACGTGTTGTT | 0.12 |
| AGATTCACGTGAGGAA | 0.46 |
| CCGGGCACGTGTAGTG | -0.18 |
| TTAAACACGTGGGGTA | -0.2 |
| TCATTCACGTGGGCGT | 0.22 |
| GAAGGCACGTGGTGGG | -0.09 |
| GGATCCACGTGTGATG | 0.15 |
| GTTTACACGTGATGCG | 0.19 |
| AGATGCACGTGTGGGC | 0.06 |
| TTAGTCACGTGTGGCC | 0.09 |
